# Some of the results follow.
# Assays:
# Assay in all cases: glycan array binding signal (z-score within array); higher = stronger binding
# Conditions in all cases: glycan notation: IUPAC condensed, linker removed
# [1] = target: Fuc(a1-2)Gal
# Method in brief: (§1)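 The binding signal is a Z-score computed within each array and averaged over linkers. Arrays of the same protein sequence at different concentrations or buffers were also averaged together. Data originate from 3228 arrays in the Consortium for Functional Glycomics database, kept only where the protein sequence was available.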
# [2] = target: Fuc(a1-2)Gal(b1-3)GalNAc
# Method in brief: as §1
# [3] = target: Fuc(a1-2)Gal(b1-3)GalNAc(a1-3)[Fuc(a1-2)]Gal(b1-4)Glc
# Method in brief: as §1
# [4] = target: Fuc(a1-2)Gal(b1-3)GalNAc(a1-3)[Fuc(a1-2)]Gal(b1-4)GlcNAc
# Method in brief: as §1
# [5] = target: Fuc(a1-2)Gal(b1-3)GalNAc(b1-3)Gal
# Method in brief: as §1
# [6] = target: Fuc(a1-2)Gal(b1-3)GalNAc(b1-3)Gal(a1-4)Gal(b1-4)Glc
# Method in brief: as §1
# [7] = target: Fuc(a1-2)Gal(b1-3)GalNAc(b1-4)[Neu5Ac(a2-3)]Gal(b1-4)Glc
# Method in brief: as §1
# [8] = target: Fuc(a1-2)Gal(b1-3)GlcNAc
# Method in brief: as §1
# [9] = target: Fuc(a1-2)Gal(b1-3)GlcNAc(b1-2)Man(a1-3)[Fuc(a1-2)Gal(b1-3)GlcNAc(b1-2)Man(a1-6)]Man(b1-4)GlcNAc(b1-4)GlcNAc
# Method in brief: as §1
# [10] = target: Fuc(a1-2)Gal(b1-3)GlcNAc(b1-2)Man(a1-3)[Fuc(a1-2)Gal(b1-3)GlcNAc(b1-2)Man(a1-6)]Man(b1-4)GlcNAc(b1-4)[Fuc(a1-6)]GlcNAc
# Method in brief: as §1
# [11] = target: Fuc(a1-2)Gal(b1-3)GlcNAc(b1-3)Gal(b1-4)Glc
# Method in brief: as §1
# [12] = target: Fuc(a1-2)Gal(b1-3)GlcNAc(b1-3)GalNAc
# Method in brief: as §1
# [13] = target: Fuc(a1-2)Gal(b1-3)GlcNAc(b1-3)[Fuc(a1-2)Gal(b1-3)GlcNAc(b1-6)]GalNAc
# Method in brief: as §1
# [14] = target: Fuc(a1-2)Gal(b1-3)GlcNAc(b1-3)[Gal(b1-4)GlcNAc(b1-6)]Gal(b1-4)Glc
# Method in brief: as §1
# [15] = target: Fuc(a1-2)Gal(b1-3)GlcNAc(b1-3)[Neu5Ac(a2-6)Gal(b1-4)GlcNAc(b1-6)]Gal(b1-4)Glc
# Method in brief: as §1
# [16] = target: Fuc(a1-2)Gal(b1-3)GlcNAc6S
# Method in brief: as §1
# [17] = target: Fuc(a1-2)Gal(b1-3)[Fuc(a1-4)]GlcNAc
# Method in brief: as §1
# [18] = target: Fuc(a1-2)Gal(b1-3)[Fuc(a1-4)]GlcNAc(b1-2)Man(a1-3)[Fuc(a1-2)Gal(b1-3)[Fuc(a1-4)]GlcNAc(b1-2)Man(a1-3)]Man(b1-4)GlcNAc(b1-4)GlcNAc
# Method in brief: as §1
# [19] = target: Fuc(a1-2)Gal(b1-3)[Fuc(a1-4)]GlcNAc(b1-2)Man(a1-3)[Fuc(a1-2)Gal(b1-3)[Fuc(a1-4)]GlcNAc(b1-2)Man(a1-6)]Man(b1-4)GlcNAc(b1-4)[Fuc(a1-6)]GlcNAc(b1-4)[Fuc(a1-6)]GlcNAc
# Method in brief: as §1
# [20] = target: Fuc(a1-2)Gal(b1-3)[Fuc(a1-4)]GlcNAc(b1-3)[Fuc(a1-3)[Gal(b1-4)]GlcNAc(b1-6)]Gal(b1-4)Glc
# Method in brief: as §1
# [21] = target: Fuc(a1-2)Gal(b1-3)[Fuc(a1-4)]GlcNAc(b1-3)[Gal(b1-4)GlcNAc(b1-6)]Gal(b1-4)Glc
# Method in brief: as §1
# [22] = target: Fuc(a1-2)Gal(b1-4)Glc
# Method in brief: as §1
# [23] = target: Fuc(a1-2)Gal(b1-4)Glc6S
# Method in brief: as §1
# [24] = target: Fuc(a1-2)Gal(b1-4)GlcNAc
# Method in brief: as §1
# [25] = target: Fuc(a1-2)Gal(b1-4)GlcNAc(b1-2)Man
# Method in brief: as §1
# [26] = target: Fuc(a1-2)Gal(b1-4)GlcNAc(b1-2)Man(a1-3)[Fuc(a1-2)Gal(b1-4)GlcNAc(b1-2)Man(a1-6)]Man(b1-4)GlcNAc(b1-4)GlcNAc
# Method in brief: as §1
# [27] = target: Fuc(a1-2)Gal(b1-4)GlcNAc(b1-2)Man(a1-3)[Fuc(a1-2)Gal(b1-4)GlcNAc(b1-2)Man(a1-6)]Man(b1-4)GlcNAc(b1-4)[Fuc(a1-6)]GlcNAc
# Method in brief: as §1
# [28] = target: Fuc(a1-2)Gal(b1-4)GlcNAc(b1-2)[Fuc(a1-2)Gal(b1-4)GlcNAc(b1-4)]Man(a1-3)[Fuc(a1-2)Gal(b1-4)GlcNAc(b1-2)Man(a1-6)]Man(b1-4)GlcNAc(b1-4)GlcNAc
# Method in brief: as §1
# [29] = target: Fuc(a1-2)Gal(b1-4)GlcNAc(b1-3)Gal(b1-4)GlcNAc
# Method in brief: as §1
# [30] = target: Fuc(a1-2)Gal(b1-4)GlcNAc(b1-3)Gal(b1-4)GlcNAc(b1-2)Man(a1-3)[Fuc(a1-2)Gal(b1-4)GlcNAc(b1-3)Gal(b1-4)GlcNAc(b1-2)Man(a1-6)]Man(b1-4)GlcNAc(b1-4)GlcNAc
# Method in brief: as §1
# [31] = target: Fuc(a1-2)Gal(b1-4)GlcNAc(b1-3)Gal(b1-4)GlcNAc(b1-3)Gal(b1-4)GlcNAc
# Method in brief: as §1
# [32] = target: Fuc(a1-2)Gal(b1-4)GlcNAc(b1-3)GalNAc
# Method in brief: as §1
# [33] = target: Fuc(a1-2)Gal(b1-4)GlcNAc(b1-3)[Fuc(a1-2)Gal(b1-4)GlcNAc(b1-6)]GalNAc
# Method in brief: as §1
# [34] = target: Fuc(a1-2)Gal(b1-4)GlcNAc(b1-3)[Fuc(a1-3)[Gal(b1-4)]GlcNAc(b1-6)]Gal(b1-4)Glc
# Method in brief: as §1
# [35] = target: Fuc(a1-2)Gal(b1-4)GlcNAc(b1-6)GalNAc
# Method in brief: as §1
# [36] = target: Fuc(a1-2)Gal(b1-4)GlcNAc6S
# Method in brief: as §1
# [37] = target: Fuc(a1-2)Gal(b1-4)[Fuc(a1-3)]GlcNAc
# Method in brief: as §1
binder,measurement,setting,value
B160 (Bifidobacterium sp) (protein) MVSHNKRIVAALAAVAAMGIGLAGCGGSDTAGDTKSGSDGGVVNITYMHRLPDSEGMTLVNDIVAKWNKEHPNIQVKATKFDGNAADMIKKLETDVKAGNAPDLAQVGYAEVPEVFTKGLLQDVTDEAAKYKDDFASGPFALMQVDGKTYGLPQDTGPLTYFYNAAEFEKLGITVPKTADELIETAKKTAAQGKYIMTFTPDEAMMMMSGQAGASGPWYKVDGNSWVVNTQTKGSKAVADVYQQLIDNKAALTNPRWDASFDNSIQSGQLIGTVAAAWEAPLFIDSAGGTGAGEWKVTQLGDWFGNGTKTGANGGSGVAVLKGSKHPAEAMEFLDWFNTQVDDLVSQGLVVAATTADAKTPQKWSDYFSGQDVMAEFKTANDNMGDFTYMPGFSAVGAAMKQTAAKAADGSAKVSDVFDTAQKTSVDTLKNLGLSVKE,glycan array binding signal (z-score),[1],-0.17
same,glycan array binding signal (z-score),[2],-0.183
same,glycan array binding signal (z-score),[3],-0.163
same,glycan array binding signal (z-score),[4],-0.167
same,glycan array binding signal (z-score),[5],-0.139
same,glycan array binding signal (z-score),[6],-0.184
same,glycan array binding signal (z-score),[7],-0.176
same,glycan array binding signal (z-score),[8],-0.158
same,glycan array binding signal (z-score),[9],-0.162
same,glycan array binding signal (z-score),[10],-0.147
same,glycan array binding signal (z-score),[11],-0.168
same,glycan array binding signal (z-score),[12],-0.158
same,glycan array binding signal (z-score),[13],-0.148
same,glycan array binding signal (z-score),[14],-0.18
same,glycan array binding signal (z-score),[15],-0.165
same,glycan array binding signal (z-score),[16],-0.133
same,glycan array binding signal (z-score),[17],-0.179
same,glycan array binding signal (z-score),[18],-0.134
same,glycan array binding signal (z-score),[19],-0.105
same,glycan array binding signal (z-score),[20],-0.159
same,glycan array binding signal (z-score),[21],-0.14
same,glycan array binding signal (z-score),[22],-0.165
same,glycan array binding signal (z-score),[23],-0.184
same,glycan array binding signal (z-score),[24],-0.166
same,glycan array binding signal (z-score),[25],-0.182
same,glycan array binding signal (z-score),[26],-0.148
same,glycan array binding signal (z-score),[27],-0.157
same,glycan array binding signal (z-score),[28],-0.114
same,glycan array binding signal (z-score),[29],-0.173
same,glycan array binding signal (z-score),[30],-0.14
same,glycan array binding signal (z-score),[31],-0.139
same,glycan array binding signal (z-score),[32],-0.162
same,glycan array binding signal (z-score),[33],-0.162
same,glycan array binding signal (z-score),[34],-0.166
same,glycan array binding signal (z-score),[35],-0.124
same,glycan array binding signal (z-score),[36],-0.17
same,glycan array binding signal (z-score),[37],-0.142
